Hit rate of the full screen: of about 45,000 compounds, about 65 (0.1%) were called active. The call rests on the fitted dose curve; in most records, active means well fitted activation curve with a large enough effect; inconclusive means small, poorly fitted or top-dose-only effect; inactive means no such curve, though single readings can be large or run the other way. The list shows a part of the results.
Molecular target: Galactocerebrosidase (Homo sapiens) (UniProt P54803)
Experiment: A Novel Cell-Based Assay to Identify Small Molecules for B -Galactocerebrosidase; further: 0% is about no effect; nearly all actives have a fitted effect of over 65% in size
Conditions: 145M-Twi-hGALC-G270D cells (Twitcher mouse brain line with human GALC G270D), HMU-beta-Gal fluorescence, 48 h; series mostly up to 57.5 µM; activation: at the top concentration
Summary of the method: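 Mutant human GALC (G270D), stably expressed in a Twitcher mouse brain cell line lacking endogenous GALC, is measured in live-treated cells via 6-hexadecanoylamino-4-methylumbelliferyl-β-galactoside hydrolysis (0.1 mM final, pH 5.2) with fluorescent detection.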

UniProt P54803, sequence (P54803 whole entry, looked up): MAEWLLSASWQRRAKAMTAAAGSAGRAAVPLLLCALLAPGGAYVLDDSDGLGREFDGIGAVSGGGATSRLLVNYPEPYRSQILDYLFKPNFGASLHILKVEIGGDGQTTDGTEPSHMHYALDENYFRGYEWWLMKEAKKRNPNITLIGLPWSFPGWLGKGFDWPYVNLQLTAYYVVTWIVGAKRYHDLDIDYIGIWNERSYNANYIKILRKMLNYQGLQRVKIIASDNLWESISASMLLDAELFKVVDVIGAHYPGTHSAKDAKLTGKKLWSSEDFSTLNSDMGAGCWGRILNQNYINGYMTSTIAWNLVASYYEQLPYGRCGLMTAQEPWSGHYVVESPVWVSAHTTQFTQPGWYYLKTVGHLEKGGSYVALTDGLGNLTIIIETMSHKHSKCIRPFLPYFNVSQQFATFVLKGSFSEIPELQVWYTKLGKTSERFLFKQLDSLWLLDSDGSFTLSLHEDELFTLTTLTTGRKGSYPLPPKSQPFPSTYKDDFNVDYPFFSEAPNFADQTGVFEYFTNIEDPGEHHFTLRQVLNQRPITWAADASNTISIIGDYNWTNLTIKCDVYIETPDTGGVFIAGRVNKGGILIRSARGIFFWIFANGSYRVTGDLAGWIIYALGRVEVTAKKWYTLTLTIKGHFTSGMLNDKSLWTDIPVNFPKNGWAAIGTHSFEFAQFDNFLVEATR

activation, inactive:
CCC(=O)Nc1cc(-c2nc3cc(C)cc(C)c3o2)ccc1C 18.1%
Cc1ccccc1OCC(=O)NCC(c1ccc(Cl)cc1)N1CCOCC1 (configuration not stated) -1.84%
O=C(Nc1ccc(Br)cc1F)c1ccc2nc(CCc3ccccc3)oc2c1 -10.4%
CN(C(=O)CSc1cn(CC(=O)N2CCCC2)c2ccccc12)c1ccccc1 -9.9%
O=C1c2[nH]nc(-c3ccccc3O)c2C(c2cccc(Br)c2)N1Cc1ccncc1 (configuration not stated) -6.84%
Cc1ccc2onc(CNC(=O)N(C)Cc3ccccc3)c2c1 -15.8%
COc1ccc(-n2c(Cc3ccccc3)nnc2SCc2nc(-c3ccccc3C)no2)cc1 -15.2%
CCN(CC)CCNC(=O)c1sc2nc(C)cc(C)c2c1-n1cccc1 -16.3%
CCOC(=O)c1ccc(NC(=O)c2cccc3c(=O)c4c([nH]c23)CCCC4)cc1 -8.95%
CCc1ccccc1NC(=O)Cn1c(C(=O)OC)cc2oc(C)cc21 -10.3%
COc1ccc(NC(=O)Cn2ccn(Cc3ccccc3)c(=O)c2=O)cc1Cl 1.06%
CC(C)Oc1ccc(CNC(=O)c2ccc3c(c2)N(Cc2ccc(F)cc2)CCS3)cc1 -13.5%
O=C(C1CCCCC1)N(Cc1cccnc1)c1nc2c(F)cccc2s1 12.4%
Clc1ccccc1CNc1nc2ccccc2c2nc(-c3ccccc3)nn12 14.6%
CCOC(=O)c1cc(-c2ccccc2)n(-c2cccc(C(=O)NC(C)CC)c2)c1C (configuration not stated) -11.2%
O=C(Cn1ncc2c3ccccc3n(Cc3ccc(F)cc3)c2c1=O)NC1CCCCCC1 -12.7%
CCn1c(CN2CCCCC2)nc2cc(NC(=O)COc3cc(C)ccc3C(C)C)ccc21 -17.3%
Cc1ccc(N(C)S(=O)(=O)c2ccc(-c3cnc(C4CC4)o3)cc2)cc1 -15.8%
COc1ccc(Nc2nc(-c3ccccc3)c3cc(Br)ccc3n2)cc1 -29.4%
COc1cc2c(cc1OC)C(COc1ccccc1OC)N(C(=O)c1ccc(S(=O)(=O)N3CCCC3)cc1)CC2 (configuration not stated) -19.7%
Cc1ccc(C)c(NC(=O)N2CCN(c3nnc(C)c4c(C)n(-c5ccccc5)nc34)CC2)c1 -19.1%
Cn1cc(C(=O)N2CCN(c3cccc(Cl)c3)CC2)c(=O)c2cc(S(=O)(=O)N3CCCC3)ccc21 3.62%
COc1ccc(C)cc1NC(=O)CN1CCCN(S(=O)(=O)c2ccc(Br)cc2)CC1 -17.2%
CCOc1ccccc1NC(=O)c1c(NC(=O)Cc2ccccc2)sc2c1CCCC2 -6.04%
COC(=O)CSCc1nc(-c2ccc(C(=O)OC)cc2)oc1C -23%
O=C(CCNS(=O)(=O)c1cccc2nonc12)Nc1ccc(F)cc1 -10.8%
COc1ccc(N2CCN(C(=O)c3cn(C4CCCCC4)c(=O)c4c3c3ccccc3n4C)CC2)cc1 -6.13%
COC(=O)c1cccc(Nc2c(-c3ccc(O)cc3)nc3nc[nH]n23)c1 -11.5%
CCOc1ccc(NC(=O)CSc2ccc3ccccc3n2)cc1 -1.74%
COC(=O)c1cc(OC)c(OC)c(OC)c1NC(=O)c1cc(=O)n(C)c(=O)n1C -10.7%
COCCCNC(=O)CN1C(=O)COc2ccc(S(=O)(=O)N3CCOCC3)cc21 21.6%
CCOC(=O)C1CCCN(C(=O)c2cc3c(=O)n(C)c4ccccc4c3s2)C1 (configuration not stated) -9.17%
Cc1c(CNC(C)c2ccccc2)c(C(=O)O)c(C)n1Cc1c(F)cccc1Cl (configuration not stated) -7.83%
CCOc1ccc(-c2c(C)nn3c(C)c(C(=O)NCC(C)c4ccccc4)cnc23)cc1OCC (configuration not stated) -22.2%
Cc1ccc(-n2nc(CO)c(C(=O)NCCc3ccccc3)n2)cc1C 5.66%
COc1cc(-c2noc(-c3nnn(-c4ccc(Cl)cc4)c3C)n2)cc(OC)c1OC -15%
CCc1ccc(N2C(=O)CS(=O)(=O)C23C(=O)N(Cc2ccccc2)c2ccccc23)cc1 (configuration not stated) -20%
CC(=O)c1ccc(NC(=O)C2CCCN(S(=O)(=O)c3cn(C)cn3)C2)cc1 (configuration not stated) -0.728%
CCc1cccc(C)c1Nc1c(-c2ccc(N3CCOCC3)cc2)nc2ncccn12 -3.79%
CCCc1nn(C)c2c(=O)[nH]c(-c3cc(S(=O)(=O)N4CCN(C)CC4)ccc3OCC)nc12 -12.1%
O=C(Cn1c(=O)n(-c2ccc(F)cc2)c(=O)c2sccc21)Nc1cccc(C(F)(F)F)c1 -8.32%
Cc1cc(C)cc(OCC(=O)Nc2cccc(-c3nc4ccccc4[nH]3)c2)c1 -11.8%
COc1ccc(-n2nc3c(c2NC(=O)C(=O)N2CCN(C)CC2)CSC3)cc1 -7.73%
Cc1c2cnn(CC(=O)Nc3ccc(F)cc3F)c(=O)c2c(C)n1Cc1cccc(Cl)c1 -14%
Cc1ccc(NC(=O)C2CCCN(c3nnc(C)c4c(C)n(-c5ccccc5)nc34)C2)cc1Cl (configuration not stated) -4.26%
CCOC(=O)c1cc2c(=O)n3ccccc3nc2n(Cc2ccco2)c1=NC(=O)c1ccccc1OC -20.6%
CC(C)NC(=O)c1cc2c(Cl)nc3ccccc3c2s1 -24.6%
CCC(=O)N1CCc2cc(S(=O)(=O)CCC(=O)NCc3ccc(F)cc3)ccc21 -14%
COc1ccc(Cn2c(C(=O)O)c(CNCCc3ccccc3Cl)c3ccc(C)cc32)cc1 -2.23%
COc1cccc(CNC(=O)Cn2c(=O)oc3cc(S(=O)(=O)N4CCC(C)CC4)ccc32)c1 -15.8%
Cc1ccc(-n2nc3c(=O)n(C(C)C(=O)O)nc(C)c3c2C)cc1 (configuration not stated) 2.71%
Cc1ccc(Cl)cc1NC(=O)Cn1c(=O)n(CCC(=O)N2CCc3ccccc3C2)c(=O)c2ccccc21 0.733%
CCOc1ccc(NC(=O)Cn2cc(C(=O)c3ccc(C)c(C)c3)c(=O)c3cc(F)ccc32)cc1 -8.15%
Cc1ccc(CNC(=O)c2ccc3c(c2)N(Cc2cccc(Cl)c2)C(=O)CS3)cc1 -0.41%
Cc1cc(O)c(C(=O)c2cnc3c(c2)COc2ccccc2-3)cc1Cl -11.2%
CCN(c1ccc(C)cc1C)S(=O)(=O)c1nnc(NC(=O)CC(C)C)s1 -15.9%
COc1cc(NC(=O)CSc2nc3nc(C)c(Cc4ccccc4)c(C)n3n2)cc(OC)c1 -5.83%
CCOc1ccc2nc(N3CCCC(C(=O)NCCc4ccc(SC)cc4)C3)sc2c1 (configuration not stated) -12.5%
COCCNC(=O)C(=O)Nc1c2c(nn1-c1ccccc1)CS(=O)(=O)C2 -14.1%
Cc1ccccc1NC(=O)CSc1nc2ccc(NC(=O)COc3ccccc3F)cc2s1 -13.5%
COc1cc(OC)c(NC(=O)Cn2c(=O)cc(C(F)(F)F)c3c(C)nn(C)c32)cc1Cl -8.36%
CCc1ccccc1NC(=O)c1cnn2c(C(F)(F)F)cc(-c3ccc(OC)c(OC)c3)nc12 4.2%
COc1ccccc1CNc1nc(-c2ccco2)nn1S(=O)(=O)c1ccc(Cl)cc1 -14.7%
COc1cc(C(=O)Nc2ccc(-c3cc(C(F)(F)F)nn3-c3ccccc3)cc2)cc(OC)c1OC -14.4%
CCOC(=O)c1cnn(-c2cccc(F)c2)c1C1CCNCC1 -0.123%
COc1ccccc1OCc1ccc(C(=O)Nc2ccc(C)c(C)c2)o1 -11.6%
Cc1cccc(NC(=O)Cn2nc(N3CCN(c4ccccc4)CC3)ccc2=O)c1C -6.75%
CCOC(=O)c1c(C)sc(-c2c(-c3cc(C)ccc3C)[nH]c3c2c(=O)[nH]c(=O)n3C)c1O -14.7%
CCOc1ccc(CCNC(=O)Cn2nc(C)c3c(C)n(-c4ccccc4)nc3c2=O)cc1OCC -13.1%
COc1cccc(CNC(=O)CCC(=O)N2CC3CCCN3c3ccccc32)c1 (configuration not stated) -1.98%
Cc1ccccc1NC(=O)CN(C)S(=O)(=O)c1cccc2nsnc12 -15.6%
O=C(NCc1ccc(F)cc1)C1CCN(C(=O)c2cnn(-c3ccccc3)c2-n2cccc2)CC1 -13.8%
O=C(Nc1ccccc1C(=O)O)c1cccc(S(=O)(=O)N2CCCC2)c1 -9.83%
CCOc1cc(C(=O)NCc2ccc3c(c2)CCN3C(=O)CC)cc(OCC)c1OCC -2.51%
CCCCN(CC)CCCNC(=O)c1cn(C)c2ccc(S(=O)(=O)N(C)C3CCCCC3)cc2c1=O -11.3%
Cc1ccc(C(=O)N2CCN(c3ccccc3F)CC2)cc1NC(=O)c1nsc2ccccc12 -12.8%
COc1ccc(-c2[nH]ncc2C(=O)NCc2ccc(F)cc2)cc1 -2.55%
CCc1cccc(NC(=O)Cn2c(=O)n(CC3CCC(C(=O)NCCc4ccccc4)CC3)c(=O)c3ccccc32)c1 (configuration not stated) 9.25%
CCC(Cn1nnc2ccccc2c1=O)NC(=O)Nc1cccc(Cl)c1 (configuration not stated) -10.3%
O=C(CSC1=Nc2ccccc2N=C(c2ccc(F)cc2)C1)Nc1cc(F)ccc1F -8.9%
COc1ccc(Cl)cc1NC(=O)CN1c2ccccc2S(=O)(=O)c2ccccc21 -17.1%
COc1ccc(N2C(=O)C(CC(=O)Nc3ccc(F)cc3)N(CCC3=CCCCC3)C2=O)cc1 (configuration not stated) -14.5%
COc1ccccc1CCNC(=O)Cc1c(C)c2c(cc(C)c3c(C)coc32)oc1=O 5.19%
O=C(NC1CC(=O)N(c2cccc(F)c2)C1)C1CCCCC1 (configuration not stated) 7.35%
CN(C(=O)Nc1cn(C)c(=O)c2ccccc12)c1ccccc1 -6.49%
CCCN1C(=O)CN(C2CCCCCC2)C(=O)C1c1ccc(OCC)c(OC)c1 (configuration not stated) 11.5%
COc1ccccc1CCNC(=O)c1cc2ccccn2n1 -15.3%
COCCCNC(=O)c1c(NC(=O)c2cc(=O)c3cc(C)c(C)cc3o2)sc2c1CCCC2 -1.14%
CCCCNc1cc(NC2CCCCC2)c2c3c(onc13)-c1ccccc1C2=O -8.94%
COC(=O)c1cc2sccc2n1Cc1ccccc1 -1.51%
O=C(CCC1N=C2c3ccccc3N=C(SCc3cccc(F)c3)N2C1=O)NC1CCCCC1 (configuration not stated) -13.5%
CC1=C(C(=O)Nc2ccccc2Cl)C(c2cccs2)n2ncnc2N1 (configuration not stated) 10.8%
O=[N+]([O-])c1ccc(O)c2ncccc12 -5.37%
Cc1ccc(SCC(=O)Nc2cccc(-c3nc4cc(Cl)ccc4o3)c2C)cc1 0.203%
CCCOc1ccc(CNC(=O)C2CCN(c3nc4ccccc4nc3C(F)(F)F)CC2)cc1 -15.3%
CCn1cc2nc(SCc3cccc(OC)c3)n(Cc3ccc(Cl)cc3)c(=O)c2n1 1.69%

Potency, inactive:
O=C(O)Cc1cccc2ccccc12

— PubChem BioAssay AID1159614 (National Center for Advancing Translational Sciences (NCATS), 2016)
